The inconclusive results got no clear call from the source; some entries with a clear call stand among them for comparison. Potencies of inconclusive entries are left out as doubtful fits. The source made the active and inactive calls. Calls come from the whole dose curve; as a rule, active = well fitted inhibition curve with a large enough effect; inconclusive = small, poorly fitted or top-dose-only effect; inactive = no such curve, though single readings can be large or run the other way.
Assay: qHTS Screen of the MIPE 4.0 Collection Against Ewings Sarcoma (EW8) (AID 1259255); note: nearly all actives have a fitted effect of over 35% in size
Conditions: EW8 Ewing sarcoma viability, CellTiter-Glo, 48 h; series mostly up to 45.8 µM
Summary of the method: (§1)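 Compound titrations go onto adherent log-phase cells 4 h after seeding, incubate 48 h at 37C, then CellTiter-Glo luminescence reports viability relative to DMSO and cell-free controls.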
Potency is the fitted concentration of half-maximal effect; tags give direction and shape of the fitted curve.

SMILES	Potency
Cc1c(-c2cccc3c(CCCOc4cccc5ccccc45)c(C(=O)O)n(Cc4cccnc4)c23)c(COc2ccc(N3CCN([S+](=O)([O-])N(C)C)CC3)cc2)nn1C	inconclusive [inhibitor, single point]
CC(C)n1cnc2c(NCCc3ccc(O)cc3)nc(-c3csc4ccccc34)nc21	active: 13.2 µM
Cc1ccc(NC(=O)c2cccc(N(C)C)c2)cc1NC(=O)c1ccc(O)cc1	inconclusive [inhibitor, full curve, poor fit]
Nc1ccc(C(=O)Nc2cccc(-c3nc(N4CCOCC4)c4oc5ncccc5c4n3)c2)cn1	active: 18.7 µM
CCn1cc(C(=O)O)c(=O)c2cc(F)c(N3CCN(C)CC3)cc21	inactive
NC(=O)c1cccc(-c2cccc(OC(=O)NC3CCCCC3)c2)c1	inactive
Nc1nc(N)c2nc(CNc3ccc(C(=O)NC(CCC(=O)O)C(=O)O)cc3)cnc2n1 (stereo not drawn)	inconclusive [inhibitor, full curve]
CS[C@H]1SC[C@@H]2C(=O)N(C)[C@H](C(C)C)C(=O)OC[C@H](NC(=O)c3cnc4ccccc4n3)C(=O)N[C@H](C)C(=O)N(C)[C@@H]1C(=O)N(C)[C@H](C(C)C)C(=O)OC[C@H](NC(=O)c1cnc3ccccc3n1)C(=O)N[C@H](C)C(=O)N2C	active: 0.0019 µM
CN(C)CCOc1ccc(-c2nc(-c3ccc4c(c3)CCC4=NO)c(-c3ccncc3)[nH]2)cc1	inconclusive [inhibitor, single point]
CN1CCC(COc2cnc(-c3cccc(Cn4nc(-c5cccc(C#N)c5)ccc4=O)c3)nc2)CC1	inconclusive [inhibitor, single point]
COc1ccc2cc([S+]([O-])Cc3ncc(C)c(OC)c3C)nc2c1	inactive
CC[C@]12C=CCN3CC[C@@]4(c5cc([C@@]6(C(=O)OC)C[C@H]7C[C@@H](C(C)(F)F)CN(Cc8c6[nH]c6ccccc86)C7)c(OC)cc5N(C)[C@H]4[C@@](O)(C(=O)OC)[C@H]1OC(C)=O)[C@@H]32	active: 0.0053 µM
NC(=O)c1cccc(N)c1	inactive
CC(C)(C)NC(=O)[C@H]1CC[C@H]2[C@@H]3CC[C@H]4NC(=O)C=C[C@]4(C)[C@H]3CC[C@]12C	active: 5.9 µM

Assay: qHTS Screen of the MIPE 4.0 Collection Against Ewings Sarcoma (TC32) (AID 1259256); note: nearly all actives have a fitted effect of over 45% in size
Conditions: TC32 Ewing sarcoma viability, CellTiter-Glo, 48 h; series mostly up to 45.8 µM
Summary of the method: as §1

SMILES	Potency
CC1(C)[C@H]2CC[C@]3(C)[C@@H](C(=O)C=C4[C@@H]5C[C@@](C)(C(=O)O)CC[C@]5(C)CC[C@]43C)[C@@]2(C)CC[C@@H]1O	inconclusive [inhibitor, partial curve, poor fit]
CCOC(=O)[C@H](CCc1ccccc1)N[C@H]1CS[C@H](c2cccs2)CN(CC(=O)O)C1=O	active: 4.18 µM
Cc1nnc(NS(=O)(=O)c2ccc(N)cc2)s1	inconclusive [inhibitor, partial curve]
Oc1cc2c(cc1O)C1c3ccc(O)c(O)c3OCC1(O)C2 (stereo not drawn)	inactive
CCc1cc(C(N)=S)ccn1	inconclusive [inhibitor, partial curve, poor fit]
COC1=C(OC)C(=O)C(CC=C(C)CCC=C(C)CCC=C(C)CCC=C(C)CCC=C(C)CCC=C(C)CCC=C(C)CCC=C(C)CCC=C(C)CCC=C(C)C)=C(C)C1=O	inactive
COc1c(C)c2c(c(O)c1CC=C(C)CCC(=O)O)C(=O)OC2	inconclusive [inhibitor, full curve]
C=C1C[C@@]2(O)O[C@@]3(C[C@H]2C(C)C)[C@H](C)CC[C@H]13	inactive
COc1cc(F)c(C(C)C)cc1-c1ccc(C(F)(F)F)cc1CN1C(=O)O[C@H](c2cc(C(F)(F)F)cc(C(F)(F)F)c2)[C@@H]1C	inconclusive [inhibitor, single point]
CCN(CC)CCCC(C)Nc1ccnc2cc(Cl)ccc12 (stereo not drawn)	inactive
CC(C)CN(C[C@H](O)[C@H](Cc1ccccc1)NC(=O)O[C@H]1CCOC1)S(=O)(=O)c1ccc(N)cc1	inconclusive [inhibitor, single point]
CN(C)CCOc1ccc(C(=C(CCCl)c2ccccc2)c2ccccc2)cc1	inconclusive [inhibitor, full curve, poor fit]
N=C(N)c1ccc(OCCCCCOc2ccc(C(=N)N)cc2)cc1	inconclusive [inhibitor, full curve]
O=C(c1ccc(C(=O)N2CCC(N3CCCC3)CC2)c(Nc2ccccc2)c1)N1CCC(N2CCCC2)CC1	inconclusive [inhibitor, partial curve]
Cc1cc(NC(=O)Nc2ccc(N(C)C)cc2)c2cc(F)cc(F)c2n1	inconclusive [inhibitor, partial curve]
Cn1cc(C=CC(=O)c2cccc(F)c2)cc1C=CC(=O)NO	active: 20.9 µM
C[C@@H]1C[C@H]2[C@@H]3CCC4=CC(=O)C=C[C@]4(C)[C@@]3(F)[C@@H](O)C[C@]2(C)[C@@]1(O)C(=O)CO	inactive
OC(Cn1cncn1)(Cn1cncn1)c1ccc(F)cc1F	inactive
CC(C)C[C@H](NC(=O)CNC(=O)c1cc(Cl)ccc1Cl)B1OC(=O)CC(CC(=O)O)(C(=O)O)O1 (stereo partly drawn)	active: 0.332 µM
CC(C)CN(C[C@@H](O)[C@H](Cc1ccccc1)NC(=O)O[C@H]1CO[C@H]2OCC[C@H]21)S(=O)(=O)c1ccc(N)cc1	inconclusive [inhibitor, full curve, poor fit]
C[C@H](CCC(=O)O)[C@H]1CCC2C3C[C@H](O)[C@@H]4C[C@H](O)CC[C@]4(C)C3CC[C@@]21C (stereo partly drawn)	inactive
CCOC(=O)C1=C[C@@H](OC(CC)CC)[C@H](NC(C)=O)[C@@H](N)C1	inactive
C#C[C@]1(O)CC[C@@H]2[C@@H]3CCC4=CC(=O)CC[C@@H]4[C@H]3CC[C@@]21CC	inactive
OC[C@H]1O[C@@H](O[C@H]2[C@@H](O)[C@@](O)(CO)O[C@@H]2CO)[C@H](O)[C@@H](O)[C@@H]1O	inconclusive [inhibitor, full curve, poor fit]
